From PubChem BioAssay AID1346428 (National Center for Advancing Translational Sciences (NCATS), 2018)
In all, about 48,000 compounds went through this assay and about 1,200 (2.5%) were called active. Not shown: some 2% with an inconclusive outcome.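 Rule for the calls: active = activation of at least 60% and not above a set upper limit (about 1 call in 100 departs from these limits); inconclusive = activation of 40% to 60%, or above that upper limit; inactive = activation under 40%.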 This is one part of the list.

These compounds were tested against Probable G-protein coupled receptor 32 (Homo sapiens) (UniProt O75388) (assay: qHTS for Agonists of Human Resolvin D1 Receptor DRV1). Details: CHO-K1 GPR32 beta-arrestin PathHunter luminescence, 90 min; at 76.9 µM; stronger effect = higher value; zero percent set by DMSO-only wells.
Sequence of UniProt O75388 (O75388 whole entry, looked up, the tested form may be a part): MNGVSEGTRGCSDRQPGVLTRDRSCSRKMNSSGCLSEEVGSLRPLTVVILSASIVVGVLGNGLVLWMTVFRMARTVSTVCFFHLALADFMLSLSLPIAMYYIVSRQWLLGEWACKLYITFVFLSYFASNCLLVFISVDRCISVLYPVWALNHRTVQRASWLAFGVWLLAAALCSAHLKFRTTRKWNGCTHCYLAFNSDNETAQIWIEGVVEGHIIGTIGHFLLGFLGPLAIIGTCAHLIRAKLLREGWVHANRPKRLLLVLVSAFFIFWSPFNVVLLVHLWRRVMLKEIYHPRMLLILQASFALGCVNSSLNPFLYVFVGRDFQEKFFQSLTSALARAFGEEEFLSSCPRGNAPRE
Procedure, shortened: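 Agonism was scored as beta-arrestin recruitment to ProLink-fused GPR32 in stably transfected CHO-K1 cells, giving a chemiluminescent beta-Gal signal; compounds were incubated 90 min at 37 °C.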
Note: 0% is about no effect.

activation, inactive:
CN(C)CCC(c1ccc(Cl)cc1)c1ccccn1 (stereo not drawn) 9.36%, CCc1ccccc1NC(=O)COCc1cc(-c2ccco2)on1 -9.5%, COC(=O)c1c(-c2ccc(Cl)cc2)noc1N1CCN(c2ccccc2OC)CC1 -5.15%, COc1ccccc1S(=O)(=O)Cc1ccc(C(=O)N2CCN(c3cc(Cl)ccc3C)CC2)o1 5.89%, Cc1cc(C)c(Cn2c(=O)n(CCC(=O)NCc3ccc4c(c3)OCO4)c(=O)c3ccccc32)c(C)c1 -6.12%, COc1cc(C2CC(=O)Nc3ccc4ccccc4c32)ccc1OC(=O)C(C)C (stereo not drawn) -8.04%, CCOc1ccc2c(c1)c(=O)c(C(=O)c1ccc(CC)cc1)cn2CC(=O)Nc1cccc(Cl)c1 11.4%, O=C(NCCc1ccccc1)c1ccc2nc(CCc3ccccc3)oc2c1 -6.61%, Cc1ccc2occ(CC(=O)N(Cc3ccc(Cl)cc3)Cc3ccco3)c2c1 7.76%, Cc1ccc(N2C(=O)[C@@H]3CSC(c4ccc(Cl)cc4)N3C2=O)cc1 (stereo partly drawn) -1.09%, CCOc1ccc(OCC)c(NC(=O)C2CCN(S(=O)(=O)c3ccc4c(c3)CC(C)N4C(C)=O)CC2)c1 (stereo not drawn) 3.22%, COC(=O)CSc1nc2sc3c(c2c(=O)n1-c1ccccc1)C(C)CCC3 (stereo not drawn) -2.24%, CC(C)Oc1ccc(C(=O)Nc2nnc3n2CCS3)cc1 -7.8%, COc1cc(C2c3c(-c4cc(C)ccc4O)n[nH]c3C(=O)N2Cc2ccco2)cc(OC)c1OC (stereo not drawn) -16.5%, CCCc1nn2c(=O)cc(COC(=O)c3cccc(NC(=O)c4ccc(OCC)cc4)c3)nc2s1 -15.7%, O=C(Cn1cc(SCc2ccc(Cl)cc2)c2ccccc21)N1CCOCC1 -21.2%, Cc1cc(Cl)ccc1NS(=O)(=O)c1c(C(=O)N2CCCCCC2)c(C)n(C)c1C -15.1%, COc1ccc(NC(=O)CSc2nc3ccccc3n2CC(=O)N(C)C2CCCCC2)cc1 0.889%, COc1ccc(NC(=O)c2cc(S(=O)(=O)N3CCCC(C)C3)cn2C)c(OC)c1 (stereo not drawn) -1.83%, O=c1n(Cc2ccccc2)nc2n1-c1cc(Cl)ccc1OC2 -8.88%, Cc1c2cnn(-c3ccccc3)c(=O)c2c(C)n1CCCC(=O)Nc1cccc(F)c1 6.48%, Cc1c(Cl)cccc1NC(=O)CSc1nc(=O)[nH]c2c1CCC2 -5.78%, O=S(=O)(c1cccc(Cl)c1)n1c(/C=C/c2ccccc2Cl)nc2ccccc21 13.1%
